# T1: IL-2Rα-ECD (human, UniProt P01589 22-240)
# T1 construct: coated on ELISA plates at 0.1 µg/well; also called CD25; receptor subunit α
# T1 sequence: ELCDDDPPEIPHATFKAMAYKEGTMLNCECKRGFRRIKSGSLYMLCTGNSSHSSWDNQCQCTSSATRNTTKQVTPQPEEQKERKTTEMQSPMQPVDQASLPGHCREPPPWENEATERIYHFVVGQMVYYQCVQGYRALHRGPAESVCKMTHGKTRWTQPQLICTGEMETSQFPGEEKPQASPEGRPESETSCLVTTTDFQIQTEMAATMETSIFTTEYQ
# Target: T1, IL-2Rα-ECD
# Assay: ELISA, IL-2Rα-ECD coated
# Procedure: A panel of IL-2 muteins was expressed as C-terminal fusions to the Fc homodimer of Fc heterodimer and screened for binding to IL-2Rα in enzyme-linked immunosorbent assay (ELISA). Briefly, IL-2Rα-ECD (SEQ ID NO: 5) was coated onto the wells of Nunc Maxisorp 96-well microplates at 0.1 μg/well. After overnight incubation at 4° C. and blocking with superblock (Thermo Fisher), 3-fold serial dilutions of IL-2 Fc fusion proteins starting at 100 nM were added to each well at 100 μI/well. Following one-hour incubation at room temperature, 100 μl/well of goat anti-human IgG Fc-HRP (1:5000 diluted in diluent) were added to each well and incubated at room temperature for 1 hour. Wells were thoroughly aspirated and washed three times with PBS/0.05% Tween-20 following each step. Finally, 100 μl TMB substrate was added to each well; the plate was developed at room temperature in the dark for 10 minutes, and 100 μl/well of stop solution (2N Sulfuric acid, Ricca Chemical) was added. Absorbance was determined at 450 nm and curves were fit using Prism software (Graph Pad).
row,Binding EC50 vs. P-0531,Binder
1,1.24 fold (ratio of EC50s),"P-0610 (Fc fusion, Fc homodimer, bivalent IL-2 variant; also called IL-2 Y107H/S125I bivalent Fc fusion) [human IgG1 Fc with L234A L235A G237A (EU numbers) not listed]GGGSGGGSAPTSSSTKKTQLQLEHLLLDLQMILNGINNYKNPKLTRMLTFKVYMPKKATELKHLQCLEEELKPLEEVLNLAQSKNFHLRPRDLISNINVIVLELKGSETTFMCEHADETATIVEFLNRWITFIQSIISTLT"
2,1 fold (ratio of EC50s),"P-0612 (Fc fusion, Fc homodimer, bivalent IL-2 variant; also called IL-2 Y107V/S125I bivalent Fc fusion) [human IgG1 Fc with L234A L235A G237A (EU numbers) not listed]GGGSGGGSAPTSSSTKKTQLQLEHLLLDLQMILNGINNYKNPKLTRMLTFKVYMPKKATELKHLQCLEEELKPLEEVLNLAQSKNFHLRPRDLISNINVIVLELKGSETTFMCEVADETATIVEFLNRWITFIQSIISTLT"
3,1.09 fold (ratio of EC50s),"P-0611 (Fc fusion, Fc homodimer, bivalent IL-2 variant; also called IL-2 Y107L/S125I bivalent Fc fusion) [human IgG1 Fc with L234A L235A G237A (EU numbers) not listed]GGGSGGGSAPTSSSTKKTQLQLEHLLLDLQMILNGINNYKNPKLTRMLTFKVYMPKKATELKHLQCLEEELKPLEEVLNLAQSKNFHLRPRDLISNINVIVLELKGSETTFMCELADETATIVEFLNRWITFIQSIISTLT"

# From patent US20220235109A1 (CUGENE, published 2022)
